In article PMC9156729:
No constants are given. Whether binding was seen depends on the method and setting. In cells and extracts the contact can be indirect. Some binding calls cover weakened binding; strength is not graded here. For part of these data: Tags and fused reporters may be left off the sequences shown.

Sequences of proteins named here, by UniProt entry; tags and fusion partners are left off. A change or cut given only in a name is not applied to a line headed by its entry.
UniProt O43791: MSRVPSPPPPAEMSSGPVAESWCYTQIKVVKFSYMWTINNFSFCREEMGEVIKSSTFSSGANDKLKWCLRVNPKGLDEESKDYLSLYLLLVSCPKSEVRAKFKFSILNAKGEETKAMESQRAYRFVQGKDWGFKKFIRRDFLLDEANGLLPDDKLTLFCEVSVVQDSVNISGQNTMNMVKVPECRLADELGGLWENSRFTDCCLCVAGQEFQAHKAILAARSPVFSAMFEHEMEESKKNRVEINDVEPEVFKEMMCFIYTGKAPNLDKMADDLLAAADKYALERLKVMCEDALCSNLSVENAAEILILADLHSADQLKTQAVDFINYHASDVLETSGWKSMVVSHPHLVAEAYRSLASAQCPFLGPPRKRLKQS
UniProt P48729: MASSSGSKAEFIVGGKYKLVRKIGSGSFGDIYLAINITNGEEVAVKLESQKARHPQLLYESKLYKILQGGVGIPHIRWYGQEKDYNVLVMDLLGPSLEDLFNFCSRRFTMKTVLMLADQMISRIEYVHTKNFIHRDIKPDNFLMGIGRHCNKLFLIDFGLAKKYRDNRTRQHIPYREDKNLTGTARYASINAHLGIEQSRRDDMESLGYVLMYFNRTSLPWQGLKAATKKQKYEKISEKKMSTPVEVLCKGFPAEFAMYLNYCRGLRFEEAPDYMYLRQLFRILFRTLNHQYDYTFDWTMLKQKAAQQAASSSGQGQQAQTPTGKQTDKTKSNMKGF
UniProt P48730: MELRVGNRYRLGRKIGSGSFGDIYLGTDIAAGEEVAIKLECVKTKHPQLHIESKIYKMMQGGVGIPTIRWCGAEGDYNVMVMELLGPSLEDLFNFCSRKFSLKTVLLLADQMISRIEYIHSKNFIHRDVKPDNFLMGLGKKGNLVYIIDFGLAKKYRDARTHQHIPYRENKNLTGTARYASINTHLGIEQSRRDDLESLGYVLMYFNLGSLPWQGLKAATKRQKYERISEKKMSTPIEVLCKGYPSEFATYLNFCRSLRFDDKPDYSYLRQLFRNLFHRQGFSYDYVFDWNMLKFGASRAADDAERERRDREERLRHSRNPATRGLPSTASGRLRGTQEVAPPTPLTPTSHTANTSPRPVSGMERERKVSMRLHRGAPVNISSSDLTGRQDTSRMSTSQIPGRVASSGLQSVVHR
UniProt P49674: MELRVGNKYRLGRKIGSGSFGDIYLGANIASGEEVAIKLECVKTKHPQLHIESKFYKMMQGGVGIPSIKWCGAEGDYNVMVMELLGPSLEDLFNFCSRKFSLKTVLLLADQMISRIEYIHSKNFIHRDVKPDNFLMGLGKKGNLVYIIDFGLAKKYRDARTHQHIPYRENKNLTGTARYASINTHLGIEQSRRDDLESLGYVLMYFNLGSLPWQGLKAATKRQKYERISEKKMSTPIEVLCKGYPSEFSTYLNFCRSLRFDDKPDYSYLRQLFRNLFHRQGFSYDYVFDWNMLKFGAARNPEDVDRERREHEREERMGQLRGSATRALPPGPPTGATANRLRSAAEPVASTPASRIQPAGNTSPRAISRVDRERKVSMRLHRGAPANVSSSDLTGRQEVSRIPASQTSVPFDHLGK

Tests used:
FLAG-SPOP, wild type [1] = target: FLAG-SPOP, wild type (UniProt O43791); test: co-IP; HEK293 cells transfected with plasmids; IP lysis buffer (50 mM Tris-HCl pH 8.0, 120 mM NaCl, 0.5% NP40, 1 mM EDTA); FLAG-agarose beads overnight at 4 °C; immunoblot
FLAG-SPOP, wild type [2] = target: FLAG-SPOP, wild type (UniProt O43791); test: condition: only cells treated with the CK1 inhibitor D4476 for 12 h; co-IP; HEK293 cells transfected with FLAG-SPOP and HA-ASCT2 and treated with the CK1 inhibitor D4476 for 12 h before harvesting; FLAG-agarose beads; immunoblot
FLAG-CK1α = FLAG-CK1α (UniProt P48729); test: co-IP; HEK293 cells transfected with plasmids; IP lysis buffer (50 mM Tris-HCl pH 8.0, 120 mM NaCl, 0.5% NP40, 1 mM EDTA); FLAG-agarose beads overnight at 4 °C; immunoblot
FLAG-CK1δ = FLAG-CK1δ (UniProt P48730); test: as above
FLAG-CK1ε = FLAG-CK1ε (UniProt P49674); test: as above
FLAG-SPOP E78K = FLAG-SPOP E78K (UniProt O43791); test: as above

B1: HA-ASCT2, wild type (protein, UniProt Q15758 1-541)
chain: MVADPPRDSKGLAAAEPTANGGLALASIEDQGAAAGGYCGSRDQVRRCLRANLLVLLTVVAVVAGVALGLGVSGAGGALALGPERLSAFVFPGELLLRLLRMIILPLVVCSLIGGAASLDPGALGRLGAWALLFFLVTTLLASALGVGLALALQPGAASAAINASVGAAGSAENAPSKEVLDSFLDLARNIFPSNLVSAAFRSYSTTYEERNITGTRVKVPVGQEVEGMNILGLVVFAIVFGVALRKLGPEGELLIRFFNSFNEATMVLVSWIMWYAPVGIMFLVAGKIVEMEDVGLLFARLGKYILCCLLGHAIHGLLVLPLIYFLFTRKNPYRFLWGIVTPLATAFGTSSSSATLPLMMKCVEENNGVAKHISRFILPIGATVNMDGAALFQCVAAVFIAQLSQQSLDFVKIITILVTATASSVGAAGIPAGGVLTLAIILEAVNLPVDHISLILAVDWLVDRSCTVLNVEGDALGAGLLQNYVDRTESRSTEPELIQVKSELPLDPLPVPTEEGNPLLKHYRGPAGDATVASEKESVM
For B1, the binding (FLAG-SPOP, wild type [1]) was “binds” and the binding (FLAG-SPOP, wild type [2]) was “no binding”.

B2: ASCT2 in HEK293 lysate (no ASCT2 plasmid named for the experiment) (protein, UniProt Q15758 1-541)
chain: B1 chain
With B2 the binding (FLAG-CK1α) was “no binding”, the binding (FLAG-CK1δ) was “binds” and the binding (FLAG-CK1ε) was “no binding”. For the same binder, the binding (FLAG-SPOP E78K) was “binds”.
